Test results: the supplement of paper PMC8728848
The list shows a part of the results.

Columns and labels:
Assay in all cases: glycan array binding signal (z-score within array); higher = stronger binding
Settings in all cases: glycan notation: IUPAC condensed, linker removed
[1] = molecular target: Gal(b1-3)GlcNAc(a1-6)Gal(b1-4)GlcNAc
In short: (§1)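 Glycan array data came from 3228 arrays in the Consortium for Functional Glycomics database, and only arrays with an available protein sequence were kept. Glycan names were put into IUPAC-condensed notation, and columns mapping to the same glycan were averaged. The binding signal is a within-array Z-score, averaged across arrays of one protein sequence run at different concentrations or buffers and across linkers. A negative Z-score can be read as non-binding.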

[2] = molecular target: Gal(b1-3)GlcNAc(b1-2)Man(a1-3)[Gal(b1-3)GlcNAc(b1-2)Man(a1-6)]Man(b1-4)GlcNAc(b1-4)GlcNAc
In short: as §1

[3] = molecular target: Gal(b1-3)GlcNAc(b1-2)Man(a1-3)[Gal(b1-3)GlcNAc(b1-2)Man(a1-6)]Man(b1-4)GlcNAc(b1-4)[Fuc(a1-6)]GlcNAc
In short: as §1

[4] = molecular target: Gal(b1-3)GlcNAc(b1-2)[Gal(b1-3)GlcNAc(b1-6)]Man(a1-6)[Gal(b1-3)GlcNAc(b1-2)Man(a1-3)]Man(b1-4)GlcNAc(b1-4)GlcNAc
In short: as §1

[5] = molecular target: Gal(b1-3)GlcNAc(b1-3)Gal(b1-3)GlcNAc
In short: as §1

[6] = molecular target: Gal(b1-3)GlcNAc(b1-3)Gal(b1-4)Glc
In short: as §1

[7] = molecular target: Gal(b1-3)GlcNAc(b1-3)Gal(b1-4)GlcNAc
In short: as §1

[8] = molecular target: Gal(b1-3)GlcNAc(b1-3)Gal(b1-4)GlcNAc(b1-6)[Gal(b1-3)GlcNAc(b1-3)]Gal(b1-4)Glc
In short: as §1

[9] = molecular target: Gal(b1-3)GlcNAc(b1-3)Gal(b1-4)[Fuc(a1-3)]GlcNAc(b1-6)[Gal(b1-3)GlcNAc(b1-3)]Gal(b1-4)Glc
In short: as §1

[10] = molecular target: Gal(b1-3)GlcNAc(b1-3)GalNAc
In short: as §1

[11] = molecular target: Gal(b1-3)GlcNAc(b1-6)Gal(b1-4)GlcNAc
In short: as §1

[12] = molecular target: Gal(b1-3)[Fuc(a1-4)]GlcNAc
In short: as §1

[13] = molecular target: Gal(b1-3)[Fuc(a1-4)]GlcNAc(b1-2)Man(a1-3)[Gal(b1-3)[Fuc(a1-4)]GlcNAc(b1-2)Man(a1-6)]Man(b1-4)GlcNAc(b1-4)GlcNAc
In short: as §1

[14] = molecular target: Gal(b1-3)[Fuc(a1-4)]GlcNAc(b1-2)Man(a1-3)[Gal(b1-3)[Fuc(a1-4)]GlcNAc(b1-2)Man(a1-6)]Man(b1-4)GlcNAc(b1-4)[Fuc(a1-6)]GlcNAc
In short: as §1

[15] = molecular target: Gal(b1-3)[Fuc(a1-4)]GlcNAc(b1-3)Gal(b1-3)[Fuc(a1-4)]GlcNAc
In short: as §1

[16] = molecular target: Gal(b1-3)[Fuc(a1-4)]GlcNAc(b1-3)Gal(b1-4)GlcNAc
In short: as §1

[17] = molecular target: Gal(b1-3)[Fuc(a1-4)]GlcNAc(b1-3)Gal(b1-4)[Fuc(a1-3)]GlcNAc
In short: as §1

[18] = molecular target: Gal(b1-3)[GlcNAc(b1-6)]GalNAc
In short: as §1

[19] = molecular target: Gal(b1-3)[GlcNAc(b1-6)]GlcNAc
In short: as §1

[20] = molecular target: Gal(b1-3)[Neu5Ac(a2-6)]GalNAc
In short: as §1

[21] = molecular target: Gal(b1-3)[Neu5Ac(a2-6)]GlcNAc
In short: as §1

[22] = molecular target: Gal(b1-3)[Neu5Ac(a2-6)]GlcNAc(a1-4)Gal(b1-4)Glc
In short: as §1

[23] = molecular target: Gal(b1-3)[Neu5Ac(a2-6)]GlcNAc(b1-6)Gal(b1-4)Glc
In short: as §1

[24] = molecular target: Gal(b1-3)[Neu5Ac(b2-6)]GalNAc
In short: as §1

[25] = molecular target: Gal(b1-3)[Neu5Ac(b2-6)]GlcNAc
In short: as §1

Gal(b1-4)Gal = molecular target: Gal(b1-4)Gal
In short: as §1

[26] = molecular target: Gal(b1-4)GalNAc(a1-3)[Fuc(a1-2)]Gal(b1-4)GlcNAc
In short: as §1

[27] = molecular target: Gal(b1-4)GalNAc(b1-3)[Fuc(a1-2)]Gal(b1-4)GlcNAc
In short: as §1

Gal(b1-4)Glc = molecular target: Gal(b1-4)Glc
In short: as §1

Gal(b1-4)Glc6S = molecular target: Gal(b1-4)Glc6S
In short: as §1

Gal(b1-4)GlcNAc = molecular target: Gal(b1-4)GlcNAc
In short: as §1

[28] = molecular target: Gal(b1-4)GlcNAc(a1-6)Gal(b1-4)GlcNAc
In short: as §1

[29] = molecular target: Gal(b1-4)GlcNAc(b1-2)Man(a1-3)Man(b1-4)GlcNAc(b1-4)GlcNAc
In short: as §1

[30] = molecular target: Gal(b1-4)GlcNAc(b1-2)Man(a1-3)[Gal(b1-4)GlcNAc(b1-2)Man(a1-6)]Man(b1-4)GlcNAc(b1-4)GlcNAc
In short: as §1

[31] = molecular target: Gal(b1-4)GlcNAc(b1-2)Man(a1-3)[Gal(b1-4)GlcNAc(b1-2)Man(a1-6)]Man(b1-4)GlcNAc(b1-4)[Fuc(a1-6)]GlcNAc
In short: as §1

[32] = molecular target: Gal(b1-4)GlcNAc(b1-2)Man(a1-3)[Gal(b1-4)GlcNAc(b1-2)][GlcNAc(b1-4)]Man(b1-4)GlcNAc(b1-4)GlcNAc
In short: as §1

[33] = molecular target: Gal(b1-4)GlcNAc(b1-2)Man(a1-3)[GlcNAc(b1-2)Man(a1-6)]Man(b1-4)GlcNAc(b1-4)GlcNAc
In short: as §1

[34] = molecular target: Gal(b1-4)GlcNAc(b1-2)Man(a1-3)[Man(a1-6)]Man(b1-4)GlcNAc(b1-4)GlcNAc
In short: as §1

B1: AAL (Aleuria aurantia), P18891 (protein)
chain: PTEFLYTSKIAAISWAATGGRQQRVYFQDLNGKIREAQRGGDNPWTGGSSQNVIGEAKLFSPLAAVTWKSAQGIQIRVYCVNKDNILSEFVYDGSKWITGQLGSVGVKVGSNSKLAALQWGGSESAPPNIRVYYQKSNGSGSSIHEYVWSGKWTAGASFGSTVPGTGIGATAIGPGRLRIYYQATDNKIREHCWDSNSWYVGGFSASASAGVSIAAISWGSTPNIRVYWQKGREELYEAAYGGSWNTPGQIKDASRPTPSLPDTFIAANSSGNIDISVFFQASGVSLQQWQWISGKGWSIGAVVPTGTPAGW
glycan array binding signal (z-score) [1]: -0.421 | glycan array binding signal (z-score) [2]: -0.414 | glycan array binding signal (z-score) [3]: 1.15 | glycan array binding signal (z-score) [4]: -0.419 | glycan array binding signal (z-score) [5]: -0.365 | glycan array binding signal (z-score) [6]: -0.397 | glycan array binding signal (z-score) [7]: -0.482 | glycan array binding signal (z-score) [8]: -0.431 | glycan array binding signal (z-score) [9]: 0.584 | glycan array binding signal (z-score) [10]: -0.414 | glycan array binding signal (z-score) [11]: -0.434 | glycan array binding signal (z-score) [12]: 1.66 | glycan array binding signal (z-score) [13]: -0.355 | glycan array binding signal (z-score) [14]: -0.039 | glycan array binding signal (z-score) [15]: 1.51 | glycan array binding signal (z-score) [16]: 1.54 | glycan array binding signal (z-score) [17]: 1.45 | glycan array binding signal (z-score) [18]: -0.48 | glycan array binding signal (z-score) [19]: -0.62 | glycan array binding signal (z-score) [20]: -0.46 | glycan array binding signal (z-score) [21]: -0.651 | glycan array binding signal (z-score) [22]: -0.625 | glycan array binding signal (z-score) [23]: -0.487 | glycan array binding signal (z-score) [24]: -0.487 | glycan array binding signal (z-score) [25]: -0.627 | glycan array binding signal (z-score) (Gal(b1-4)Gal): -0.447 | glycan array binding signal (z-score) [26]: -0.081 | glycan array binding signal (z-score) [27]: -0.399 | glycan array binding signal (z-score) (Gal(b1-4)Glc): -0.503 | glycan array binding signal (z-score) (Gal(b1-4)Glc6S): -0.491 | glycan array binding signal (z-score) (Gal(b1-4)GlcNAc): -0.488 | glycan array binding signal (z-score) [28]: -0.433 | glycan array binding signal (z-score) [29]: -0.404 | glycan array binding signal (z-score) [30]: -0.521 | glycan array binding signal (z-score) [31]: 0.792 | glycan array binding signal (z-score) [32]: -0.438 | glycan array binding signal (z-score) [33]: -0.439 | glycan array binding signal (z-score) [34]: -0.406
